# Test results published in PubChem BioAssay (NCATS).
# This is one part of the list. The main result of the screen is listed elsewhere. These columns were measured beside it and carry no call. Most of these compounds were active or inconclusive in the main read-out, so they are no random draw. The note in brackets gives the kind of curve behind each potency; many fits are weak.
# Target: Phenylethanolamine N-methyltransferase (Homo sapiens) (UniProt P11086)
# Test: Confirmatory Screen for Target Class Profiling of Small Molecule Inhibitors of Methyltransferases (AID 1745852);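 also: inhibitor potency for blocking SAH production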
# Conditions: MTase-Glo luminescence, SAH detection, recombinant enzyme; measured here: PNMT inhibition potency
# Tags tell the direction and shape of the fitted curve.
# Sequence of UniProt P11086 (P11086 whole entry, looked up): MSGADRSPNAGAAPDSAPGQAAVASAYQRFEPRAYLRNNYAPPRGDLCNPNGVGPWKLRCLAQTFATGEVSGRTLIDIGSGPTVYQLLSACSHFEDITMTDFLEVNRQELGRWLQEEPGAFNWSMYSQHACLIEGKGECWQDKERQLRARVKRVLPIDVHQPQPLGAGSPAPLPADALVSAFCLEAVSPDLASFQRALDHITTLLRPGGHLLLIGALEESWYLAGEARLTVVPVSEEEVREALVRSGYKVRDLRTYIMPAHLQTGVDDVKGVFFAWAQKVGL
row,Structure (SMILES),IC50
1,Cc1ccc(NS(=O)(=O)c2ccc3[nH]c(=O)[nH]c3c2)cc1F,"21.5 µM [falling, partial curve]"
2,COc1cccc([C@H]2Nc3ccc(S(=O)(=O)Nc4ccc(C)cc4C)cc3[C@H]3C=CC[C@H]32)c1,"27.1 µM [falling, partial curve, poor fit]"
3,CCOC(=O)c1ccc(NC(=O)Cn2c(=O)oc3cc(S(=O)(=O)N4CCCC4)ccc32)cc1,"17.1 µM [falling, partial curve]"

# System: not listed separately
# Test: NCATS anti-infectives library activity on the primary C. elegans qHTS viability assay (AID 1745855)
# Conditions: C. elegans worm area imaging, day 7, measured here: worm number
# Method in brief: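 Viability read-out is GFP fluorescence of PE254-GFP-FLuc C. elegans, measured by laser cytometry (488 nm) at day 0, 3 and 7. Ten L1 worms per well were incubated 7 days at 21 °C with compounds and bacterial capsules in S medium.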
row,Structure (SMILES),AC50
1,CC(C)c1cnn2c(NCc3ccccc3-n3cccn3)nc(OC3CCCNC3)nc12 (centres undefined),"8.16 µM [falling, partial curve, poor fit]"
2,C(=N\Nc1nc(Nc2ccccc2)nc(N2CCOCC2)n1)/c1c[nH]c2ccccc12,"4.59 µM [falling, partial curve, poor fit]"
3,Cc1cc(O)cc(C)c1Cl,"29 µM [falling, single point]"
4,C[C@H](Cn1cnc2c(N)ncnc21)OCP(=O)(O)O,"1.45 µM [falling, partial curve, poor fit]"
5,CN[C@H](CC(C)C)C(=O)N[C@H]1C(=O)N[C@@H](CC(N)=O)C(=O)N[C@H]2C(=O)N[C@H]3C(=O)N[C@H](C(=O)N[C@H](C(=O)O)c4cc(O)cc(O)c4-c4cc3ccc4O)[C@H](O[C@H]3C[C@](C)(N)[C@@H](O)[C@H](C)O3)c3ccc(c(Cl)c3)Oc3cc2cc(c3O[C@@H]2O[C@H](CO)[C@@H](O)[C@H](O)[C@H]2O[C@H]2C[C@](C)(NCc3ccc(-c4ccc(Cl)cc4)cc3)[C@@H](O)[C@H](C)O2)Oc2ccc(cc2Cl)[C@H]1O,"7.27 µM [falling, partial curve, poor fit]"
6,Cc1cn([C@H]2O[C@@H](CO)[C@H](O)[C@H]2F)c(=O)[nH]c1=O,"8.16 µM [falling, partial curve, poor fit]"
